Out of some 76,000 compounds screened, about 1,900 (2.5%) were called active. The inconclusive results got no clear call from the source; some entries with a clear call stand among them for comparison. Calls come from the whole dose curve; as a rule, active = well fitted inhibition curve with a large enough effect; inconclusive = small, poorly fitted or top-dose-only effect; inactive = flat fitted curve, though single readings scatter. Potencies beside an inconclusive call are fits to weak or partial responses and may not hold up.
Each compound was assayed against Luciferin 4-monooxygenase (Photinus pyralis) (UniProt P08659) (assay: Firefly luciferase inhibition profiling of diverse chemical library using quantitative high-throughput screening). Conditions: purified P. pyralis luciferase, luminescence, biochemical; activity change, negative = inhibition: at 115 µM (top of the series) unless noted.
How it was run: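 Luminescence read by CCD imager after adding enzyme (10nM final) to wells holding compound, titrated in qHTS. Substrates 10uM each D-luciferin and ATP; buffer 50mM Tris acetate pH 7.5, 10mM Mg acetate, Tween-20, BSA.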
% is set by controls: 0 for no effect and ±100 for the full control effect; potency is the fitted concentration of half-maximal effect; tags give direction and shape of the fitted curve.
Note: nearly all actives have a fitted effect of over 65% in size.

UniProt P08659, sequence (P08659 whole entry, looked up): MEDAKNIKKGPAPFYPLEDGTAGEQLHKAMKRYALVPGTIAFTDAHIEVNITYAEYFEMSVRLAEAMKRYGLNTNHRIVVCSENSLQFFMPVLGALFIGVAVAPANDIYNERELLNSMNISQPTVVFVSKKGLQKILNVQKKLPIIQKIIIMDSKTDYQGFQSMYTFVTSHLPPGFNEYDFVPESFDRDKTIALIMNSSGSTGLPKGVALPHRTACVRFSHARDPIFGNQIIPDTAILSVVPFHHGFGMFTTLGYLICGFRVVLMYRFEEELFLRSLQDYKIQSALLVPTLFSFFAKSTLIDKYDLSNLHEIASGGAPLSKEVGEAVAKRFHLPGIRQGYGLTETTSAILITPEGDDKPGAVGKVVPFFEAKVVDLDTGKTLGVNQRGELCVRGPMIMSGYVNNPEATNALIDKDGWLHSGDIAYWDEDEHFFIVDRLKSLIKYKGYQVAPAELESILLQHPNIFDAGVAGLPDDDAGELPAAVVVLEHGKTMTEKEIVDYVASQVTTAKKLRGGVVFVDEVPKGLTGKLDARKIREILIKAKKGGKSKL

Row | Structure (SMILES) | Potency | activity change, negative = inhibition
1 | c1ccc(-c2nc3ncccc3[nH]2)cc1 | inconclusive: 100 µM [inhibitor, partial curve] | 
2 | CCn1cc(C(=O)N2C[C@@H](COC)[C@H](c3ccccn3)C2)cn1 |  | inactive: -9.95%
3 | CCOCC(=O)N1CCc2nc3cc(-c4ccc(OC)cc4)[nH]n3c(=O)c2C1 | inconclusive: 11.2 µM [inhibitor, full curve, poor fit] | 
4 | Cc1nn2c(c1-c1cccnc1N1CCOCC1)N(C(=O)Cc1cccc(Cl)c1)CCC2 |  | inactive: 0.259%
5 | COc1cccc(CNC(=O)C2CCN(C(=O)c3ncn4c3COC(c3ccccc3)C4)CC2)c1 (stereo not given) | active: 22.4 µM | 
6 | COc1cccc(CN2CC(Oc3ccccc3C(=O)NC3CC3)C2)c1 |  | inactive: 6.31%
7 | Cc1cc(NC(=O)C2CCN(C(=O)c3ncn4c3COC(c3ccc(F)cc3)C4)CC2)ccc1Cl (stereo not given) | active: 39.8 µM | 
8 | Cc1cn2nnc(C(=O)NC3CCCCCCC3)c2c(=O)[nH]1 | inconclusive: 44.7 µM [inhibitor, partial curve] | 
9 | Cc1cc(=O)n(CC(=O)Nc2ccccc2F)c(N2CCc3ccccc3C2)n1 |  | inactive: 7.16%
10 | COCCNC(=O)[C@H]1C[C@H](Oc2ccccc2)CN1C(=O)NC(C)C |  | inactive: -2.84%
11 | O=C(c1ccc(Cl)cc1)N1CCC2(CC1)N(c1ccccc1)C(=O)CS2(=O)=O |  | inactive: -8.56%
12 | COc1ccc(-c2cc3c(cn2)CN(Cc2ccccc2)CCN3)cc1OC | inconclusive: 79.4 µM [inhibitor, partial curve, poor fit] | 
13 | Cc1cccc(-c2noc([C@@H]3Cc4nc[nH]c4CN3Cc3ccc(C(=O)O)cc3)n2)c1 | inconclusive: 79.4 µM [inhibitor, partial curve] | 
14 | O=C(c1ccncc1)N1CCc2nc3cc(-c4ccccc4Cl)[nH]n3c(=O)c2C1 | inconclusive: 35.5 µM [inhibitor, partial curve, poor fit] | 
15 | COCCOCC(=O)N1CC(Oc2ccc(-c3noc(-c4ccccc4)n3)cc2)C1 | inconclusive: 7.08 µM [inhibitor, full curve] | 
16 | Cc1cc(C)c(CNC(=O)c2nc(-c3cnn(C)c3)cc3c2ccn3C)c(=O)[nH]1 | inconclusive: 63.1 µM [inhibitor, partial curve] | 
17 | CC(C)CNC(=O)C1COC2(CCCCC2)N1C(=O)c1cccc([N+](=O)[O-])c1 (stereo not given) |  | inactive: 2.18%
18 | COc1ccc2nc([C@H]3CCN(Cc4ccccc4)C3)[nH]c2c1 | active: 22.4 µM | 
19 | COc1ccc(C)cc1NC(=O)c1ccc2c(c1)N(C)C1CCCN1C2=O (stereo not given) | inconclusive: 50.1 µM [inhibitor, partial curve] | 
20 | COc1ccc(N2CCN(C(=O)c3noc(-c4ccc(C)cc4)n3)CC2)cc1 | active: 14.1 µM | 
21 | Cc1ccc(-c2ccc(C(=O)NCCCn3ccnc3C(C)C)cn2)cc1C | inconclusive: 89.1 µM [inhibitor, single point] | 
22 | O=C(Nc1ccc2c(c1)OCO2)C1CCCN(c2cn[nH]c(=O)c2)C1 (stereo not given) | inconclusive: 28.2 µM [inhibitor, partial curve] | 
23 | CC(C)CNC(=O)C1COC2(CCN(C(=O)c3ccc(F)cc3F)CC2)N1C(=O)c1ccccc1 (stereo not given) |  | inactive: 4.45%
24 | COCC1CN(C(C)=O)CC12CCN(C(=O)CCCc1ccccc1)CC2 (stereo not given) |  | inactive: 4.74%

Row | Structure (SMILES) | Potency | activity change, negative = inhibition
25 | COC[C@@H]1CN(Cc2ccc3[nH]ccc3c2)C[C@H]1c1nc(C)no1 |  | inactive: 5.29%
26 | O[C@@H]1C[C@@H](c2nc(-c3ccc4c(c3)OCO4)no2)N(CC2CCCCC2)C1 | inconclusive: 89.1 µM [inhibitor, partial curve] | 
27 | NC(=O)c1cccc(-c2cc3c(cn2)CN(Cc2ccncc2)CCN3)c1 | inconclusive: 126 µM [inhibitor, single point] | 
28 | CN(Cc1cnn(C)c1)C(=O)c1csc2nc(-c3cccc(C(F)(F)F)c3)cn12 | inconclusive: 44.7 µM [inhibitor, partial curve] | 
29 | COc1ccc2c(c1)OCC(CNC(=O)c1ccc(C(C)C)n(C)c1=O)C2 (stereo not given) | inconclusive: 44.7 µM [inhibitor, partial curve, poor fit] | 
30 | C=CCN(C(=O)CC1COc2ccc(C(=O)N(C)C)cc2N1C)C(C)C (stereo not given) |  | inactive: 2.97%
31 | CCOc1cccc(-c2nnc(CCC(=O)NCCc3ccccc3)c(=O)[nH]2)c1 | inconclusive: 50.1 µM [inhibitor, partial curve] | 
32 | Cc1ccc(C2Cn3nnc(C(=O)NCC4CC4)c3CO2)cc1 (stereo not given) | inconclusive: 50.1 µM [inhibitor, partial curve] | 
33 | O=C(NCc1cccnc1)c1ccc(-c2ccc(N3CCSCC3)nc2)cc1 | inconclusive: 31.6 µM [inhibitor, partial curve] | 
34 | COc1ccc(-c2ccc3c(c2)C(=O)N2CC[C@H](NC(=O)c4cccs4)[C@H]2C(=O)N3)cc1 | active: 25.1 µM | 
35 | c1ccc(CCc2noc(-c3ccc(NCCN4CCCC4)nc3)n2)cc1 | inconclusive: 44.7 µM [inhibitor, partial curve] | 
36 | O=C(c1ccsc1)N1CCCC2(C1)Nc1cccnc1NC2=NC1CCCC1 (stereo not given) |  | inactive: 4.88%
37 | CCN1c2cc(C(=O)Nc3cccc(F)c3)ccc2C(=O)N2CCCCC21 (stereo not given) | inconclusive: 56.2 µM [inhibitor, partial curve, poor fit] | 
38 | CC(C)N(C)Cc1nnnn1CC(=O)NCCn1ncc2ccccc2c1=O |  | inactive: -1.15%
39 | c1coc(-c2nc3nccc(-c4cc5ccccc5o4)n3n2)c1 |  | inactive: -16.9%
40 | CCCN(C)c1nccnc1OC1CCN(C(=O)c2ccc(OC)cc2)C1 (stereo not given) | active: 39.8 µM | 
41 | Cn1ccnc1CN[C@@H]1CO[C@H](CNC(=O)c2ccc(F)cc2)[C@H]1O | inconclusive: 100 µM [inhibitor, partial curve] | 
42 | Cc1oc(C(O)c2ccccc2F)nc1C(=O)Nc1ccc(C(=O)Nc2ccccc2)cc1 (stereo not given) | inconclusive: 35.5 µM [inhibitor, full curve, poor fit] | 
43 | COc1ccc(F)c(-c2nc(CN(C)CC3(CO)CC3)c(C)o2)c1 | inconclusive: 89.1 µM [inhibitor, partial curve, poor fit] | 
44 | COc1ccc(C2Cn3nnc(-c4noc(COc5ccccc5)n4)c3CO2)cc1 (stereo not given) |  | inactive: -1.69%
45 | Cc1nc2scc(CC(=O)NC3CC3)n2c(=O)c1-c1cc(C)n(-c2ccc(C(C)C)cc2)n1 | inconclusive: 6.31 µM [inhibitor, partial curve, poor fit] | 
46 | O=C(c1ccc(F)cc1)N1CC(Oc2cccc(-c3nc(-c4ccccc4)no3)c2)C1 | inconclusive: 20 µM [inhibitor, full curve] | 
47 | CCCNC(=O)C(NC(=O)c1cccc(OC)c1)C1CCN(C(=O)c2ccccc2F)CC1 (stereo not given) |  | inactive: -8.93%
48 | COCCN1C(=O)c2cccn2CC1CNC(=O)Nc1ccc(OC)cc1 (stereo not given) |  | inactive: 0.959%

Row | Structure (SMILES) | Potency | activity change, negative = inhibition
49 | CC1(O)CCCN(Cc2cc3cc4c(cc3nc2-c2ccc(Cl)cc2)OCO4)C1 (stereo not given) | active: 31.6 µM | 
50 | Cc1noc(C)c1NC(=O)N[C@@H]1C[C@H](COc2ccc(S(C)(=O)=O)cc2)[C@@H](O)[C@H]1O |  | inactive: 8.84%
51 | CCOC(=O)C1(Cc2cccc(OC)c2)CCCN(C(=O)COc2ccccc2)C1 (stereo not given) | active: 35.5 µM | 
52 | Cc1ccc(C2=NC3(CCN(C(=O)c4cccc(Cl)c4)CC3)ON2)cc1 | inconclusive: 44.7 µM [inhibitor, partial curve] | 
53 | COc1ccc(CN2C=C(C(=O)OCc3noc(-c4ccc(C#N)cc4)n3)C(C)=NS2(=O)=O)cc1 |  | inactive: 2.21%
54 | CN(C)C(=O)c1ccc(OC2CCN(C(=O)c3cccs3)CC2)nc1 |  | inactive: -2.62%
55 | COc1ccc(-c2cc(N3CCN(C(=O)c4ccc(OC)c(F)c4)CC3)n[nH]2)cc1 |  | inactive: -10.2%
56 | Cc1cccc(NC(=O)Nc2ccc(C)n(CC(=O)NC3CCCCC3)c2=O)c1 | inconclusive: 1 µM [inhibitor, full curve] | 
57 | Cc1ccc(C(CC(=O)N2CCc3ccccc3C2)c2cn(C)c3ccccc23)cc1 (stereo not given) | active: 35.5 µM | 
58 | COC(=O)N1CCc2nc(-c3ccc(Cl)cc3)nc(-c3ccccc3)c2C1 | inconclusive: 50.1 µM [inhibitor, partial curve] | 
59 | O=C1CC2(CCN(Cc3ccccc3)CC2)Oc2cc(Cl)ccc21 | inconclusive: 44.7 µM [inhibitor, partial curve] | 
60 | Cc1ccc(CC(=O)N2CCCN(c3cc(-c4ccc(C)c(C)c4)[nH]n3)CC2)cc1 |  | inactive: -14.2%
61 | Cc1nn(C)c(C)c1CN(Cc1cnc(N2CCCCC2)nc1)C1CC1 | inconclusive: 39.8 µM [inhibitor, partial curve] | 
62 | COc1ccc(/C=C/c2ccc3c(c2)C(=O)N2CC[C@H](NC(=O)COCC(=O)O)[C@H]2C(=O)N3)cc1 | active: 7.94 µM | 
63 | O=C(CN1C(=O)NC2(CCOCC2)C1=O)Nc1cccc(F)c1 | inconclusive: 44.7 µM [inhibitor, partial curve] | 
64 | O=C(O)CC1(CC(=O)N[C@@H]2C=C(C(=O)N[C@H]3CCCNC3=O)C[C@@H](O)[C@@H]2O)CCCC1 |  | inactive: -3.13%
65 | COc1ccc([C@H]2C[C@@H](O)[C@@H](O)[C@@H]2NC(=O)c2c(-c3ccccc3)noc2C)cc1 |  | inactive: 7.02% [at 172 µM]
66 | O=C1Cc2c(-c3cccc4ccccc34)n[nH]c2CN1CCOc1ccccc1 | active: 10 µM | 
67 | O=c1[nH]nc2n1CCC(NS(=O)(=O)Cc1cccc(F)c1)CC2 (stereo not given) |  | inactive: -1.99%
68 | COc1ccc(NC(=O)Nc2ccc(C)n(CC(=O)N3CCCCCC3)c2=O)cc1 | active: 8.91 µM | 
69 | c1cc(-c2nnc([C@H]3CCN(C4CCCCC4)C3)o2)ccn1 | inconclusive: 89.1 µM [inhibitor, partial curve] | 
70 | O=C(Cc1cccc(Cl)c1)NCc1c[nH]c2ncccc12 | inconclusive: 44.7 µM [inhibitor, partial curve] | 
